Whole data set: some 33,000 sequences, median “E-score (-0.5 to 0.5)” near -0.053, cut for the highest 2% near 0.37. Some of the results follow.
target: Hap1 (UniProt P0CE41); assay: PBM E-score (8-mer binding enrichment) (E-score (-0.5 to 0.5)); higher = stronger / more preferred TF binding; most listed sequences are background and not binding sites; conditions: protein concentration: 200 nM; construct: GST-DNA-binding domain
Method: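 Universal 'all 10-mer' protein binding microarrays (Agilent AMADID 015681) probed with GST-tagged S. cerevisiae TFs (full-length or DBD) made by in vitro transcription/translation (PURExpress), about 100-200 nM. Bound TF was detected with fluorescent anti-GST. Each ungapped 8-mer (which stands for itself and its reverse complement) is scored by the PBM enrichment score (E-score), a modified Wilcoxon-Mann-Whitney statistic from -0.5 to +0.5, computed with the Universal PBM Analysis Suite. Scale: above 0.35 generally sequence-specific binding.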

UniProt P0CE41, sequence (P0CE41 whole entry, the tested form may be a part): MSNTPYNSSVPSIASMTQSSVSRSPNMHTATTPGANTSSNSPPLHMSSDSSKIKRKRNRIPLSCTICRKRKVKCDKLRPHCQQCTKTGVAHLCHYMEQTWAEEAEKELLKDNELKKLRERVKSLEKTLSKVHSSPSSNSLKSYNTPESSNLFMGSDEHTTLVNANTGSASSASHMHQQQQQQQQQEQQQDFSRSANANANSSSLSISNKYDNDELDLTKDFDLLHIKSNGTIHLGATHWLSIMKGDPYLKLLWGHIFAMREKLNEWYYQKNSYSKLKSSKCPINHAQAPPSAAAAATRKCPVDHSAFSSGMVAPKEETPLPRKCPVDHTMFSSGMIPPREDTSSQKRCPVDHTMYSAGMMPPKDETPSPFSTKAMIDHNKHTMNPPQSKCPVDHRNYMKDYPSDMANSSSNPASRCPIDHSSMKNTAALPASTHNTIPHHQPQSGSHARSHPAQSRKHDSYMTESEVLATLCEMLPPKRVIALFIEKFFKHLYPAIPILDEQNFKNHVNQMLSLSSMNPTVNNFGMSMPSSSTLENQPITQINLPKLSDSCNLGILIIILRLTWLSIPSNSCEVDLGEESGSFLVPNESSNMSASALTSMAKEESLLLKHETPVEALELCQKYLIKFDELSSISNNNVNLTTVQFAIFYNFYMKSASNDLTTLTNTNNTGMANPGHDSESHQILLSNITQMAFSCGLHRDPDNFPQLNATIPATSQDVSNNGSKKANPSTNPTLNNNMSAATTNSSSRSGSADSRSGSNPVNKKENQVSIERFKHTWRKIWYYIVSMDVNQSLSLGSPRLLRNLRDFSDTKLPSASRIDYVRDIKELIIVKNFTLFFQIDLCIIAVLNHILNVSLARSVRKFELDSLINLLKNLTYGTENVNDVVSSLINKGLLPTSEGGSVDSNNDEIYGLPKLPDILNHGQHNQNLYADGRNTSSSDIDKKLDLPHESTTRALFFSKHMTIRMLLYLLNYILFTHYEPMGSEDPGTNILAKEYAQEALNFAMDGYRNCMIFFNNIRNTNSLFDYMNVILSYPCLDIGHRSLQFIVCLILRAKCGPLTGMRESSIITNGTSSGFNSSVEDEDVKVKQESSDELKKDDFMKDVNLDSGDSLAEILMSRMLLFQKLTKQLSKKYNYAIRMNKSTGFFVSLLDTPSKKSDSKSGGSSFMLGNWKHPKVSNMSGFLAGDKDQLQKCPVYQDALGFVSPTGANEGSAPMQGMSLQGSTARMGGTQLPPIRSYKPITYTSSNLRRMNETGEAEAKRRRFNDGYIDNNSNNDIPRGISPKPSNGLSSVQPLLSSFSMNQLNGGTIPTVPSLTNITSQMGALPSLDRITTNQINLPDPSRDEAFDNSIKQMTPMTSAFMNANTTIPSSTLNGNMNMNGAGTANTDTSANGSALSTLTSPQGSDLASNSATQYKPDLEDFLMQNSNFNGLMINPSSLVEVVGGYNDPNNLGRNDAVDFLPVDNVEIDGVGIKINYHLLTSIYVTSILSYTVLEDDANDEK

Sequence | PBM E-score
ATCCTTCG | 0.171
CCGCGGGA | 0.341
ACCGTAAG | 0.0557
AAGTCTCG | 0.0946
CAAAAGTA | -0.151
ACTAACTA | -0.121
CCGGAGGA | 0.432
ATGGGCTA | -0.125
AGTTGGGC | -0.098
GGTTTTTA | 0.101
GACCGAAA | 0.385
CTCTCCAA | -0.0734
ATGGCACA | -0.0544
CCGTTGAG | 0.185
TCTTTTAA | -0.115
CAGCCCTC | -0.215
AGGCGGTG | -0.208
ACTAGCCG | 0.0396
CCTCTGCA | -0.167
CTATGGCA | -0.228
TCATGCCA | -0.277
CGCTGAGC | -0.164
CCTACGAC | -0.095
TCGTAAAA | 0.0494
ACACGGCC | 0.231

Sequence | PBM E-score
CCAACCAA | -0.108
TCTCTGCA | -0.107
CCACATCG | 0.0478
CGGGGATA | 0.475
AAGTTGTA | -0.1
AAACAACA | -0.174
CGATTATC | 0.112
ACGCCACC | -0.135
ATAATTTG | 0.0462
TCTGAAGA | -0.275
CGGGGTCC | 0.204
AGATCTCA | -0.158
GCTCGATA | 0.0192
GAGAACGA | -0.0637
AAGGGTCG | 0.0795
GTAGTGAC | -0.0754
CGCATCCA | -0.0122
CATCGACG | -0.0279
AGGCATTA | -0.08
GGCTGTAA | 0.00796
GCTTATGA | -0.0915
GTTGTACA | 0.123
GGCCATGA | -0.0169
GCCGTTGA | 0.0494
ACAATAAA | 0.0219

Sequence | PBM E-score
CCCGTTAA | 0.297
GCTCGAGA | -0.172
ACGACGCT | -0.131
ATAGCTAC | -0.0962
AACATTGG | -0.102
AGACATCA | -0.105
CAGGGTTA | -0.245
ACTGTCAC | -0.11
AGGTGTTA | -0.173
CGACGTCC | 0.0917
ACCGAATC | 0.281
CTGCCACC | -0.0977
ACAAGCGC | 0.11
TGTAGACA | -0.24
CATGATAA | -0.109
CGGCTCAG | 0.173
CTGTTCTA | -0.0728
ACGCATAG | -0.0607
CTCGGAAC | 0.31
ATCGTGTA | -0.113
ACGCATCT | -0.00302
GCATGTCC | 0.133
CAGTCGCA | -0.183
CCTCGTTC | -0.0843
TATTACGA | 0.139

Sequence | PBM E-score
ATATTGAT | 0.0582
AATCCCAA | -0.0614
ATCAAACA | -0.127
CACACCTA | 0.0418
CGGGGCCA | 0.263
ACTGGCAT | -0.286
CAATTATG | 0.0344
ACGCATAT | -0.0964
GGGACCAC | 0.0623
AGGTACTG | -0.0971
ATTAGACA | -0.256
ACGGAGAT | 0.445
AGCCGATG | 0.233
AAATTAAC | 0.0122
TTTCGAAA | -0.207
ATATTATG | 0.0411
GTCGCTAA | -0.0711
ATATGCAA | -0.119
CCAACGAG | -0.194
CTGGTCCC | -0.25
AACTATTA | -0.11
ACTTAATG | -0.0636
AGCGTTCC | -0.162
GATTAATC | 0.354
CTATTGAG | -0.178

Sequence | PBM E-score
CATCCTCG | 0.0457
CCCGGGTC | 0.386
CGGGTAAA | 0.226
AGCGCGGC | 0.045
CTACTCTA | -0.169
CGATTAAA | 0.231
GATCTGAC | -0.116
ATTTGGTA | 0.0304
AAGTGGTA | -0.257
ATTTTTGA | -0.132
AGGGCTCG | 0.114
CCTCACCA | -0.156
AAGAAATG | -0.00404
ACCGAGGG | 0.235
CTCCTCGA | -0.307
ACGGACAC | 0.278
CAACACGG | 0.127
CTTCGCGC | 0.0717
CCAACTAC | -0.0196
CCGCTCAG | -0.0245
CCATCGAG | -0.0288
TATTAATA | 0.0949
AAGACTAT | -0.226
AAGATTCA | -0.037
GACACAGA | 0.0169

Sequence | PBM E-score
CAGCCTAA | -0.354
AAGGGACT | -0.209
ACGTACTC | -0.0119
CCCTATAA | -0.0687
TCCATAAA | -0.138
CGATCCTC | -0.109
CTCTGGTC | 0.0175
AAGGCAGA | -0.147
GTCTCCAC | -0.135
GATCCAGA | 0.0196
CAGCGATA | 0.161
AGATAATC | 0.182
AATGGTTA | -0.0245
CCACGCCG | 0.0416
ATCGAGAC | -0.105
AGCCATAT | -0.138
ATCGTGCA | -0.0776
CAGGTTCA | -0.238
CTGGACTA | -0.15
CCAAGGAG | -0.0607
CGTGTGAA | -0.0927
GCGATCTA | -0.0828
GACACCTA | -0.107
GTTCATAA | -0.165
GTCTGTTA | -0.069

Sequence | PBM E-score
AATCTACC | 0.0844
TACAACAA | -0.0768
CGCTGAGA | -0.0619
TGCGTACA | -0.148
ACTGTCCG | 0.305
CTGTGGTA | -0.112
AACCTTAC | -0.0149
GCCAGAAA | -0.0571
ACACTTCT | -0.119
AGGGCGGC | -0.102
ATTGATAG | -0.186
CCATATAC | -0.123
CAGCAGTC | 0.027
ATATAACA | 0.151
CTATGAAA | -0.119
ACTCTCTC | -0.0452
ATGCGTTG | -0.0581
AGTATACA | -0.126
ACTGTTTG | -0.252
GACTTAAA | 0.035
CTGGGAAC | -0.0849
ACTTTGGA | -0.207
GGTTTAAC | 0.138
GCATCCAC | -0.0499
CAACATAC | 0.0167

Sequence | PBM E-score
GAGTGCGA | -0.0139
CTTAAGCC | 0.193
CCCAACGC | -0.0574
ACTTCACA | -0.209
ACAAGAAT | -0.0632
CAGAGCAG | -0.24
ACGGCCCG | 0.249
AATTGTAC | -0.0831
ATTACGAC | 0.0438
GAGTCCCA | 0.0286
CCCGTTCC | 0.14
AAACTTAA | -0.0507
AGTTAGGG | -0.212
GAGATTCC | 0.211
AATCTTCC | 0.181
ATGTTAGG | -0.203
AGAAGTCT | -0.0864
CACAAACA | 0.0469
CTACATTA | -0.0669
AGAACACC | -0.0387
CCATTAGA | -0.00837
ATCTAATG | -0.0892
ACACAAGA | -0.0983
AGACCGGG | 0.265
CCCGGGCA | 0.376

Sequence | PBM E-score
CTCGAATC | -0.152
CTACCTCA | -0.115
AGCGCTAG | -0.206
CATGTCCG | 0.372
ACGCAAGG | -0.233
CACACGCG | -0.0361
CCGGACGA | 0.431
CCTTCAGA | -0.298
ATAACAGA | -0.0777
ACCGACTG | 0.203
AACAAAAC | -0.0263
AAATCCTT | 0.0613
AGGGTTGA | -0.101
CACCGGTC | 0.227
CAGTAGGA | -0.142
TACCGGCA | 0.353
CGACACTA | 0.085
AGAACAAC | -0.0401
CATTTATA | -0.145
GCCGTGGA | 0.182
AAGCCCTT | -0.221
CATACCCA | -0.133
AGGGGACG | -0.0826
CTGGTTCA | -0.167
GTGTACGA | 0.0174

Sequence | PBM E-score
ACAAGCAC | -0.103
AAAAAGTG | -0.17
CCGGTCGC | 0.161
GCCCAGAC | -0.00848
CCTGAAAA | -0.196
ATAGTGAT | -0.146
AATAAGTA | -0.104
GCGCCCTA | -0.0405
AGATTTGA | -0.138
AGTCTTGC | -0.207
ATCTTTCA | 0.0359
GGGGTTCA | -0.11
AGTCCAAC | -0.176
TAGAAAGA | -0.185
GACGCAGC | -0.183
AATAGGAG | -0.198
AATTGAAG | -0.0322
AGAAGCGC | 0.105
ACTAGGAG | -0.152
ACTCTTAC | -0.109
AAGTGTAG | -0.247
CGGTCCGA | 0.435
ATTTCAAA | -0.104
CACGCGCA | -0.0512
AATAGCTG | -0.15

Sequence | PBM E-score
GGTGGGAA | -0.0333
CCTCCGCC | 0.107
ATCCTTGA | 0.0127
CGAGATGC | -0.0846
ACCCTCAA | -0.134
GGGACCCA | -0.154
AATTTCCG | 0.437
ATATCAGG | -0.0679
CGCCATGA | -0.0975
TACTGTAA | -0.0971
ATTGTCTC | -0.0388
TGAAACCA | 0.0905
AGTAGGCG | -0.0778
CTATAGTA | 0.0683
CAACTCGA | -0.114
ACGACTGA | -0.119
CGGTGGAG | 0.184
CTCAAGCC | -0.0348
GAGAGAGC | -0.0317
CGGCCGAA | 0.449
AGCCTTAT | -0.0107
GGGATCAA | 0.0981
GACGGACA | 0.325
AGGCCGTG | 0.0809
AAGTAATT | 0.00442

Sequence | PBM E-score
ATTATTTC | 0.156
CCTCCCAG | -0.196
CACAACGC | 0.0118
GAATGCGA | 0.0832
CTATCCAG | -0.118
AGTAGCTA | -0.0452
AGCATACA | -0.0454
GGTAGCAC | 0.00404
GTTTCGGA | 0.389
CATGCGCC | 0.0342
CCCAGCGC | 0.0945
AATTGCAA | -0.0885
ATGACGTC | 0.0476
AATTGATG | 0.0475
AACAGGTT | -0.0864
AGTTCATG | 0.024
CAATCAGC | -0.105
AGTTGATC | -0.124
ACTGCCAA | -0.0893
AGGAGAAT | -0.149
ACGAACGA | -0.146
AGAATATC | 0.155
AAGGTCTC | -0.0372
AACCCCTG | -0.0923
TTCGCAAA | 0.17

Sequence | PBM E-score
GCAACGAA | -0.167
ATCTAAAC | 0.0421
AGACGTGA | -0.14
CGTCATGC | -0.119
ATCAATGG | -0.19
CCGATAGG | 0.438
AACTGAGC | -0.0463
AGACATGG | -0.0875
GTTTGTGA | -0.103
GCGCATTA | 0.134
AGATCTTA | -0.212
CTTGCGCA | -0.0398
GTTACTCA | -0.0216
CCGACGGC | 0.298
CGTGATGC | -0.0405
CGGGATGC | 0.123
CGACGGAC | 0.319
GATGTGTA | -0.115
CCATTGGA | -0.205
CTTTGCGC | -0.00074
CATTTCGC | 0.165
ATCAAGCG | 0.0373
AAAATGAA | -0.264
ACAATGTG | -0.193
GTTTGAAA | -0.0169

Sequence | PBM E-score
CGCTTACC | -0.00034
GCCACATA | -0.136
ACATGCGT | -0.105
CCTTAACG | 0.156
AAATGCGG | 0.255
CACCACCA | 0.00125
CGCTTCCA | -0.0186
GTTTGGAA | -0.257
ATTTTACC | 0.201
GGACAGAC | 0.0489
CGCGACAC | 0.126
ATAGGCGG | 0.239
CGAGGAAG | -0.0118
AGTGCGTA | -0.0903
GAAGGATC | -0.114
ACCACGTA | -0.282
CGTGAGCA | -0.0635
CAATACCG | 0.266
ACTTCTCA | -0.318

Reference: the supplement of paper PMC3334620
